# Experimental data published in patent publication US20250214977A1, “STAT6 INHIBITORS AND USES THEREOF” (Kymera Therapeutics, Inc., priority 2024, published 2025).
# Molecular target: T1, biotinylated truncated STAT6 (123-632)-avi (Homo sapiens, UniProt P42226)
# T1 sequence (P42226 123-632 limits assumed): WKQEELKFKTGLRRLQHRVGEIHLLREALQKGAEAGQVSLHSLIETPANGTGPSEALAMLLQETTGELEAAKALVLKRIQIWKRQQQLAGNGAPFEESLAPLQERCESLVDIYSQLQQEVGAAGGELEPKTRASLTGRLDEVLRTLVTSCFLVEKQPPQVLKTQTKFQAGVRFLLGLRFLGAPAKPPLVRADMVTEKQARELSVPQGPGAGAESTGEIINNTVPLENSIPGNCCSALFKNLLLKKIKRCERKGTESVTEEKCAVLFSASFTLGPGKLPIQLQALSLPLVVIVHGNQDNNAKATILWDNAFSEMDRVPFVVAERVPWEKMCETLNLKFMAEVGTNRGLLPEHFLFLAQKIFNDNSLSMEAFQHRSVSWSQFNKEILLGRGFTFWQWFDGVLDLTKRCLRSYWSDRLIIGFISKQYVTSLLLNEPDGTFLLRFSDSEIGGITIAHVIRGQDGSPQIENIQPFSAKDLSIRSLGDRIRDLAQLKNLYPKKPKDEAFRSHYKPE
# Assay: Homogenous Time-Resolved Fluorescence (HTRF) binding assay
# Conditions: 0.15 nM biotinylated truncated STAT6 (123-632)-avi, 20 nM fluorescein-labeled probe
Compound,IC50 (30 minutes at room temperature) [nM],IC50 (30 minutes room temperature) [nM]
COc1cnccc1-c1cc(C2=CCCN(C(=O)CCn3cccn3)C2)c(F)c2[nH]c(C(=O)N3CCN(c4ncc(F)cc4OC)CC3)cc12 [Example I-663],< 100,
COc1ccccc1-c1cc(C2=CCCN(C(=O)CCn3ccnn3)C2)c(F)c2[nH]c(C(=O)N3Cc4ncn(C)c4C3)cc12 [Example I-541],< 100,
COc1ccccc1-c1cc(C2=CCCN(C(=O)CCn3ccnn3)C2)c(F)c2[nH]c(C(=O)Nc3nonc3C)cc12 [Example I-1353],,100 to 1000
COc1ccncc1-c1cc(C2=CCCN(C(=O)CCn3ccnn3)C2)c(F)c2[nH]c(C(=O)N3CCN(c4ccc(Cl)cc4OC)CC3)cc12 [Example I-450],< 100,
CN(C)C(=O)c1cc2ccc(C3=CCCN(C(=O)CCc4ccccc4C#N)C3)cc2[nH]1 [Example I-64],10000 to 100000,
CCc1nc(C)ccc1-c1cc(C(=O)N2Cc3cnn(CC)c3C2)c(F)c2cc(C3=CCCN(C(=O)CCn4ccnn4)C3)n(CC3CC3)c12 [Example I-549],> 100000,
COc1ccccc1-c1cc(C2=CCCN(C(C)=O)C2)c(F)c2sc(C(=O)N(C)C)cc12 [Example I-552],100 to 1000,
COc1ccccc1-c1cc(C2=CCCN(C(=O)CCn3ccnn3)C2)c(F)c2[nH]c(C(=O)N3CCC(c4ncc(Cl)cn4)CC3)cc12 [Example I-1385],,< 100
CN(C)C(=O)c1cc2cc(C3=CCCN(C(=O)Cc4nc5ccccc5o4)C3)ccc2o1 [Example I-292],10000 to 100000,
COc1ccccc1-c1cc(C2=CCCN(C(=O)CCn3ccnn3)C2)c(F)c2[nH]c(C(=O)N3CCN(c4cccc(OC(F)F)n4)CC3)cc12 [Example I-927],100 to 1000,
COc1cc(F)cnc1N1CCN(C(=O)c2cc3c(-c4cccc(CO)c4C)cc(C4=CCCN(C(=O)CCn5ccnn5)C4)c(F)c3[nH]2)CC1 [Example I-616],> 100000,
COc1ccccc1-c1cc(C2=CCCN(C(=O)CCn3ccnn3)C2)c(F)c2[nH]c(C(=O)N(C)CCC(C)O)cc12 (centres unmarked) [Example I-1424],,< 100
COc1cc(F)cnc1N1CCN(C(=O)c2cc3c(-c4cc(C5(C#N)CC5)ccc4F)cc(C4=CCCN(C(=O)CCn5ccnn5)C4)c(F)c3[nH]2)CC1 [Example I-650],< 100,
CN(C)C(=O)c1cc2cc(C3=CCCN(C(=O)Cc4cnc5ccccn45)C3)ccc2o1 [Example I-276],1000 to 10000,
CCc1ccncc1-c1cc(C2=CCCN(C(=O)OC)C2)c(F)c2[nH]c(C(=O)N3CCN(c4ncc(F)cc4OC)CC3)cc12 [Example I-708],10000 to 100000,
COc1ccccc1-c1cc(C2=CCCN(C(=O)CCn3ccnn3)C2)c(F)c2[nH]c(C(=O)N3CCN(c4cc5c(O)ncnc5cn4)CC3)cc12 [Example I-1455],,< 100
CN(C)C(=O)c1cc2c(-c3ccccc3Cl)cc(C3=CCCN(C(=O)CCn4ccnn4)C3)c(F)c2[nH]1 [Example I-1668],,< 100
O=C(CCn1ccnn1)N1CCC=C(c2ccc3cc(-c4ccccn4)[nH]c3c2)C1 [Example I-119],10000 to 100000,
CCCc1noc(C2CCN(C(=O)c3cc4c(-c5ccccc5OC)cc(C5=CCCN(C(=O)CCn6ccnn6)C5)c(F)c4[nH]3)CC2)n1 [Example I-1384],,< 100

Compound,IC50 (30 minutes at room temperature) [nM],IC50 (30 minutes room temperature) [nM]
CCc1cc(C(F)F)ncc1-c1cc(C2=CCCN(C(=O)CCn3ccnn3)C2)c(F)c2[nH]c(C(=O)N3CCN(c4nc(C)c(F)cc4OC)CC3)cc12 [Example I-763],< 100,
CCc1nc(C)ccc1-c1cc(C2=CCCN(C(=O)CCn3ccnn3)C2)c(F)c2sc(-n3c(C)nn(C)c3=O)cc12 [Example I-1326],,< 100
CN(C)C(=O)c1cc2ccc(C3=CCCN(C(=O)CCn4ncc5cc(Cl)ncc54)C3)cc2[nH]1 [Example I-80],10000 to 100000,
COc1ccccc1-c1cc(C2=CCCN(C(=O)CCn3ccnn3)C2)c(F)c2[nH]c(C(=O)N3CCN(c4ccsc4C#N)CC3)cc12 [Example I-776],< 100,
CN(C)C(=O)c1cc2cc(C3=CCCN(C(=O)CCn4ccnn4)C3)cc(-c3cnn(-c4ccccc4)c3)c2o1 [Example I-1608],,100 to 1000
COc1ccccc1-c1cc(C2=CCCN(C(=O)CCn3ccnn3)C2)c(F)c2[nH]c(C(=O)N3CCN(c4ccnnc4O)CC3)cc12 [Example I-908],< 100,
COc1ccccc1-c1cc(C2=CCCN(C(=O)CCn3ccnn3)C2)c(F)c2[nH]c(C(=O)N3CCN(c4ccc(C5CC5)cn4)CC3)cc12 [Example I-1437],,< 100
CCc1cccnc1N1CCN(C(=O)c2cc3c(-c4ccccc4OC)cc(C4=CCCN(C(=O)CCn5ccnn5)C4)c(F)c3[nH]2)CC1 [Example I-327],< 100,
COc1ccccc1-c1cc(C2=CCCN(C(=O)CCn3ccnn3)C2)c(F)c2[nH]c(C(=O)N3CC(C)(C)c4ccccc43)cc12 [Example I-1419],,10000 to 100000
COc1ccccc1-c1cc(C2=CCCN(C(=O)CCn3ccnn3)C2)c(F)c2[nH]c(C(=O)N3CCN(c4nc(OC(F)F)ccc4OC)CC3)cc12 [Example I-490],> 100000,
CCc1ccncc1-c1cc(C2=CCCC(C(=O)O)C2)c(F)c2[nH]c(C(=O)N3CCN(c4ncc(F)cc4OC)CC3)cc12 (centres unmarked) [Example I-1205],1000 to 10000,
COc1ccccc1-c1cc(C2=CCCN(C(=O)CCn3ccnn3)C2)c(F)c2[nH]c(C(=O)N3CCC(c4c(OC)cccc4OC)CC3)cc12 [Example I-1436],,100 to 1000
CCc1nc(C)ccc1-c1cc(C(=O)N2CCN(c3ncc(F)cc3OC)CC2)cc2cc(C3=CCCN(C(=O)CC(=O)O)C3)n(CC(C)C)c12 [Example I-800],> 100000,
COc1ccccc1-c1cc(C2=CCCN(C(=O)CCn3ccnn3)C2)c(F)c2[nH]c(C(=O)N3CC=C(C4CC4)CC3)cc12 [Example I-511],< 100,
COc1ccccc1-c1cc(C2=CCCN(C(=O)CCn3ccnn3)C2)c(F)c2[nH]c(C(=O)N3Cc4cc(Br)ccc4CC3C)cc12 (centres unmarked) [Example I-1420],,100 to 1000
Cc1nocc1C(=O)N1CCC=C(c2ccc3cc(C(=O)N(C)C)[nH]c3c2)C1 [Example I-35],1000 to 10000,
COc1ccccc1-c1cc(C2=CCCN(C(=O)CCn3ccnn3)C2)c(F)c2[nH]c(C(=O)N3CCNC(CC#N)C3)cc12 (centres unmarked) [Example I-1348],,100 to 1000
COc1cc(F)cnc1N1CCN(C(=O)c2cc3c(-c4cnccc4C(C)C)cc(C4=CCCN(C(=O)CCn5ccnn5)C4)c(F)c3[nH]2)CC1 [Example I-668],> 100000,
CC(=O)N1CCC=C(c2cc(-c3ccccc3)c3cc(C(=O)N(C)C)[nH]c3c2F)C1 [Example I-1590],,100 to 1000

Compound,IC50 (30 minutes at room temperature) [nM],IC50 (30 minutes room temperature) [nM]
COc1cc(F)cnc1N1CCN(C(=O)c2cc3c(-c4ccc(-c5ccncc5)cc4)cc(C4=CCCN(C(=O)CCn5ccnn5)C4)c(F)c3[nH]2)CC1 [Example I-1118],< 100,
CN(C)C(=O)c1cc2ccc(C3=CCCN(C(=O)C4CCC4C(=O)O)C3)cc2[nH]1 (centres unmarked) [Example I-39],10000 to 100000,
COc1ccccc1-c1cc(C2=CCCN(C(=O)CCn3ccnn3)C2)c(F)c2[nH]c(C(=O)N3CCN(c4ccnc(Nc5ccc(C#N)cc5)n4)CC3)cc12 [Example I-948],< 100,
CN(C)C(=O)c1cc2cc(C3=CCCN(C(=O)Cc4ccc5c(c4)CN(C(=O)OC(C)(C)C)CC5)C3)ccc2o1 [Example I-259],10000 to 100000,
COc1ccccc1-c1cc(C2=CCCN(C(=O)CCn3ccnn3)C2)c(F)c2[nH]c(C(=O)N3CCN(c4cccnc4OC)CC3)cc12 [Example I-347],< 100,
CN(C)C(=O)c1cc2ccc(C3=CCCN(C(=O)OCn4ccnn4)C3)cc2[nH]1 [Example I-120],> 100000,
COc1ccccc1-c1cc(C2=CCCN(C(=O)CCn3ccnn3)C2)c(F)c2[nH]c(C(=O)N3CCN(c4cc(F)c(F)c5ccc(C)nc45)CC3)cc12 [Example I-907],< 100,
COc1ccccc1-c1cc(C2=CCCN(C(=O)CCn3ccnn3)C2)c(F)c2[nH]c(C(=O)N3CCN(c4ncnc5ncn(C)c45)CC3)cc12 [Example I-920],< 100,
COc1cnccc1-c1cc(C2=CCCN(C(=O)CCn3ccnn3)C2)c(F)c2[nH]c(C(=O)N3CCN(c4ncc(C(F)(F)F)cc4OC)CC3)cc12 [Example I-435],< 100,
CN(C)C(=O)c1cc2ccc(C3=CCCN(C(=O)CCc4nncs4)C3)cc2[nH]1 [Example I-828],100 to 1000,
COc1cccnc1N1CCN(C(=O)c2cc3ccc(C4=CCCN(C(=O)CCn5ccnn5)C4)c(F)c3[nH]2)CC1 [Example I-338],< 100,
COc1ccccc1-c1cc(C2=CCCN(C(=O)CCn3ccnn3)C2)c(F)c2[nH]c(C(=O)N3CCN(c4cn(C)c5ncncc45)CC3)cc12 [Example I-1016],< 100,
O=C(CCn1ccnn1)N1CCC=C(c2ccc3cc(C(=O)N(CCO)CCc4ccccc4)[nH]c3c2F)C1 [Example I-1635],,1000 to 10000
CN(C)C(=O)c1cc2ccc(C3=CCCN(C(=O)Cc4c[nH]nn4)C3)cc2[nH]1 [Example I-1674],,10000 to 100000
COc1cc(F)cnc1N1CCN(C(=O)c2cc3c(-c4ccc(C5(O)CCC5)cc4)cc(C4=CCCN(C(=O)CCn5ccnn5)C4)c(F)c3[nH]2)CC1 [Example I-1146],< 100,
CN(C)C(=O)c1cc2cc(C3=CCCN(C(=O)CCn4ccnn4)C3)cc(-c3ccc4c(c3)NC(=O)C4)c2o1 [Example I-869],< 100,
COc1cc(F)cnc1N1CCN(C(=O)c2cc3c(C4=CCN(c5ccccn5)CC4)cc(C4=CCCN(C(=O)CCn5ccnn5)C4)c(F)c3[nH]2)CC1 [Example I-1117],< 100,
CN(C)C(=O)c1cc2cc(C3=CCCN(C(=O)Cc4ccccc4)C3)ccc2o1 [Example I-283],1000 to 10000,
